# Assay results reported in patent US9763922B2 (priority 2014, dated 2017).
# System: MYC
# Experiment: cells
# Conditions: Homo sapiens, MV4-11, 4 h, read-out: Myc IC50 (μM)
row,Compound,IC50 [µM]
1,"CNC(=O)N1CCc2c(c(N3CCCc4cc(-c5cn(C)nc5C)c(C(F)F)cc43)nn2C2CCOCC2)C1 [Example 320, 3-[7-(difluoromethyl)-6-(1,3-dimethylpyrazol-4-yl)-3,4-dihydro-2H-quinolin-1-yl]-N-methyl-1-tetrahydropyran-4-yl-6,7-dihydro-4H-pyrazolo[4,3-c]pyridine-5-carboxamide]",0.021
2,"CNC(=O)N1CCc2c(c(N3CCCc4cc(-c5cnn(C)c5)c(S(C)(=O)=O)cc43)nn2C2CCOCC2)C1 [Example 261, N-methyl-3-[6-(1-methylpyrazol-4-yl)-7-methylsulfonyl-3,4-dihydro-2H-quinolin-1-yl]-1-tetrahydropyran-4-yl-6,7-dihydro-4H-pyrazolo[4,3-c]pyridine-5-carboxamide]",0.029
3,"CNC(=O)N1CCc2c(c(N3CC[C@H](C)c4cc(-c5cnn(C)c5)c(C(F)F)cc43)nn2C2CCOCC2)C1 (single isomer, unassigned) [Example 359]",0.019
4,"CNC(=O)N1CCc2c(c(N3CCCc4cc(-c5cnn(C)c5)c(C(F)F)cc43)nn2-c2cccnc2)C1 [Example 341, 3-[7-(difluoromethyl)-6-(1-methylpyrazol-4-yl)-3,4-dihydro-2H-quinolin-1-yl]-N-methyl-1-(3-pyridyl)-6,7-dihydro-4H-pyrazolo[4,3-c]pyridine-5-carboxamide]",0.038
5,"CC(=O)N1CCc2c(c(N3CCCc4cc(-c5ccnc(C#N)c5)c(C(F)F)cc43)nn2C2CCOCC2)C1 [Example 316, 4-[1-(5-acetyl-1-tetrahydropyran-4-yl-6,7-dihydro-4H-pyrazolo[4,3-c]pyridin-3-yl)-7-(difluoromethyl)-3,4-dihydro-2H-quinolin-6-yl]pyridine-2-carbonitrile]",0.034
6,"CNC(=O)N1CCc2c(c(N3CCOc4cc(-c5cnn(C)c5)c(C(F)(F)F)cc43)nn2C2CCOCC2)C1 [Example 276, N-methyl-3-[7-(1-methylpyrazol-4-yl)-6-(trifluoromethyl)-2,3-dihydro-1,4-benzoxazin-4-yl]-1-tetrahydropyran-4-yl-6,7-dihydro-4H-pyrazolo[4,3-c]pyridine-5-carboxamide]",0.013
7,"CC(=O)N1CCc2c(c(Nc3ccc(-c4cn(C)nc4C(F)F)cc3F)nn2C2CCOC2)C1 (stereo not shown) [Example 305, 1-[3-[4-[3-(difluoromethyl)-1-methyl-pyrazol-4-yl]-2-fluoro-anilino]-1-tetrahydrofuran-3-yl-6,7-dihydro-4H-pyrazolo[4,3-c]pyridin-5-yl]ethanone]",0.093
8,"CC(=O)N1CCc2c(c(N3CCN(C)c4cc(-c5cnn(C)c5)c(C(F)(F)F)cc43)nn2C2CCOCC2)C1 [Example 269, 1-[3-[4-methyl-6-(1-methylpyrazol-4-yl)-7-(trifluoromethyl)-2,3-dihydroquinoxalin-1-yl]-1-tetrahydropyran-4-yl-6,7-dihydro-4H-pyrazolo[4,3-c]pyridin-5-yl]ethanone]",0.007
9,"CNC(=O)N1CCc2c(c(N3CCCc4cc(-c5ccc(C#N)s5)c(C(F)F)cc43)nn2C2CCOCC2)C1 [Example 364, 3-[6-(5-cyano-2-thienyl)-7-(difluoromethyl)-3,4-dihydro-2H-quinolin-1-yl]-N-methyl-1-tetrahydropyran-4-yl-6,7-dihydro-4H-pyrazolo[4,3-c]pyridine-5-carboxamide]",0.095
10,"CNC(=O)N1CCc2c(c(N3CCCc4cc(-c5cnc(OC)nc5)c(C(F)F)cc43)nn2C2CCOCC2)C1 [Example 363, 3-[7-(difluoromethyl)-6-(2-methoxypyrimidin-5-yl)-3,4-dihydro-2H-quinolin-1-yl]-N-methyl-1-tetrahydropyran-4-yl-6,7-dihydro-4H-pyrazolo[4,3-c]pyridine-5-carboxamide]",0.048
11,"COc1cc(-c2ccc3c(c2)CCCN3c2nn(C3CCOCC3)c3c2CN(C(C)=O)CC3)ccn1 [Example 60, 1-[3-[6-(2-methoxy-4-pyridyl)-3,4-dihydro-2H-quinolin-1-yl]-1-tetrahydropyran-4-yl-6,7-dihydro-4H-pyrazolo[4,3-c]pyridin-5-yl]ethanone]",0.089
12,"CC(=O)N1CCc2c(c(N3C[C@H](C)Cc4cc(-c5cnn(C)c5)c(C#N)cc43)nn2C2CCOCC2)C1 (single isomer, unassigned) [Example 356]",0.049
13,"CC(=O)N1CCc2c(c(N3CCCc4cc(-c5cnn(C)c5)c(C(F)F)cc43)nn2C2CCOC2)C1 (stereo not shown) [Example 123, 1-[3-[7-(difluoromethyl)-6-(1-methylpyrazol-4-yl)-3,4-dihydro-2H-quinolin-1-yl]-1-tetrahydrofuran-3-yl-6,7-dihydro-4H-pyrazolo[4,3-c]pyridin-5-yl]ethanone]",0.233
14,"CC(=O)N1CCc2c(c(N3CC(CO)Cc4cc(-c5cnn(C)c5)ccc43)nn2[C@H]2CCOC2)C1 (stereo in doubt) [Example 86, 1-[3-[3-(hydroxymethyl)-6-(1-methylpyrazol-4-yl)-3,4-dihydro-2H-quinolin-1-yl]-1-tetrahydrofuran-3-yl-6,7-dihydro-4H-pyrazolo[4,3-c]pyridin-5-yl]ethanone]",6.1
15,"CC(=O)N1CCc2c(c(N3CCCc4cc(-c5cc(C)n(C)n5)ccc43)nn2C2COC2)C1 [Example 35, 1-[3-[6-(1,5-dimethylpyrazol-3-yl)-3,4-dihydro-2H-quinolin-1-yl]-1-(oxetan-3-yl)-6,7-dihydro-4H-pyrazolo[4,3-c]pyridin-5-yl]ethanone]",0.202
16,"CC(=O)N1CCc2c(c(Nc3cccc(-c4cnn(C)c4)c3F)nn2C2CCOC2)C1 (stereo not shown) [Example 50, 1-[3-[2-fluoro-3-(1-methylpyrazol-4-yl)anilino]-1-tetrahydrofuran-3-yl-6,7-dihydro-4H-pyrazolo[4,3-c]pyridin-5-yl]ethanone]",0.65
17,"CNC(=O)N1CCc2c(c(N3CCCc4cc(-c5cnn(C)c5)c(C(F)F)cc43)nn2C2CCN(C(=O)C3CC3)CC2)C1 [Example 377, 1-(1-(cyclopropanecarbonyl)piperidin-4-yl)-3-(7-(difluoromethyl)-6-(1-methyl-1H-pyrazol-4-yl)-3,4-dihydroquinolin-1(2H)-yl)-N-methyl-1,4,6,7-tetrahydro-5H-pyrazolo[4,3-c]pyridine-5-carboxamide]",0.006
18,"CC(=O)N1CCc2c(c(Nc3ccc(-c4ccc(F)cc4)cc3)nn2CC2CC2)C1 [Example 97, 1-[3-[5-chloro-6-(1-methylpyrazol-4-yl)-3,4-dihydro-2H-quinolin-1-yl]-1-[(3S)-tetrahydrofuran-3-yl]-6,7-dihydro-4H-pyrazolo[4,3-c]pyridin-5-yl]ethanone]",0.71
19,"CC(=O)N1CCc2c(c(N3C[C@H](c4ccccc4)Cc4cc(-c5cnn(C)c5)ccc43)nn2[C@H]2CCOC2)C1 [Example 119, (S, S)-1-[3-[6-(1-methylpyrazol-4-yl)-3-phenyl-3,4-dihydro-2H-quinolin-1-yl]-1-tetrahydrofuran-3-yl-6,7-dihydro-4H-pyrazolo[4,3-c]pyridin-5-yl]ethanone]",0.657
20,"CC(=O)N1CCc2c(c(N3C[C@@H](C)c4cc(-c5cnn(C)c5)ccc43)nn2[C@H]2CCOC2)C1 [Example 197, (S,S)-1-[3-[3-methyl-5-(1-methylpyrazol-4-yl)indolin-1-yl]-1-tetrahydrofuran-3-yl-6,7-dihydro-4H-pyrazolo[4,3-c]pyridin-5-yl]ethanone]",1.57
21,"CC(=O)N1CCc2c(c(N3CC4(CC4)c4cc(-c5cnn(C)c5)ccc43)nn2C)C1 [Example 176, 1-[1-methyl-3-[5′-(1-methylpyrazol-4-yl)spiro[cyclopropane-1,3′-indoline]-1′-yl]-6,7-dihydro-4H-pyrazolo[4,3-c]pyridin-5-yl]ethanone]",0.523
22,"CC(=O)N1CCc2c(c(N3CCc4c3ccc(-c3cnn(C)c3)c4CO)nn2C2CCOC2)C1 (stereo not shown) [Example 220, 1-[3-[4-(hydroxymethyl)-5-(1-methylpyrazol-4-yl)indolin-1-yl]-1-tetrahydrofuran-3-yl-6,7-dihydro-4H-pyrazolo[4,3-c]pyridin-5-yl]ethanone]",3.84
23,"CC(=O)N1CCc2c(c(N3CCC(C)c4cc(-c5cnn(C)c5)c(C#N)cc43)nn2[C@H]2CCOC2)C1 (stereo in doubt) [Example 103, 1-(5-acetyl-1-tetrahydrofuran-3-yl-6,7-dihydro-4H-pyrazolo[4,3-c]pyridin-3-yl)-4-methyl-6-(1-methylpyrazol-4-yl)-3,4-dihydro-2H-quinoline-7-carbonitrile]",0.224
24,"CNC(=O)N1CCc2c(c(N3C[C@H](C)N(C)c4cc(-c5cnn(C)c5)c(C#N)cc43)nn2C2CCOCC2)C1 [Example 267, (S)-3-[7-cyano-3,4-dimethyl-6-(1-methylpyrazol-4-yl)-2,3-dihydroquinoxalin-1-yl]-N-methyl-1-tetrahydropyran-4-yl-6,7-dihydro-4H-pyrazolo[4,3-c]pyridine-5-carboxamide]",0.082
25,"Cn1cc(-c2cc3c(cc2OC(F)F)N(c2nn(C4CCOCC4)c4c2CN(C(N)=O)CC4)CCC3)cn1 [Example 152, 3-[7-(difluoromethoxy)-6-(1-methylpyrazol-4-yl)-3,4-dihydro-2H-quinolin-1-yl]-1-tetrahydropyran-4-yl-6,7-dihydro-4H-pyrazolo[4,3-c]pyridine-5-carboxamide]",0.072
26,"CC(=O)N1CCc2c(c(Nc3ccc(-c4cnn(C)c4)cc3F)nn2[C@H]2CCOC2)C1 [Example 300, 1-[3-[2-fluoro-4-(1-methylpyrazol-4-yl)anilino]-1-[(3S)-tetrahydrofuran-3-yl]-6,7-dihydro-4H-pyrazolo[4,3-c]pyridin-5-yl]ethanone]",1.2
27,"CNC(=O)c1ccc(-c2cc3c(cc2C(F)F)N(c2nn(C4CCOCC4)c4c2CN(C(C)=O)CC4)CCC3)cn1 [Example 124, 5-(1-(5-acetyl-1-(tetrahydro-2H-pyran-4-yl)-4,5,6,7-tetrahydro-1H-pyrazolo[4,3-c]pyridin-3-yl)-7-(difluoromethyl)-1,2,3,4-tetrahydroquinolin-6-yl)-N-methylpicolinamide]",0.006
28,"CNC(=O)N1CCc2c(c(N3CCCc4cc(-c5cnn(C)c5)c(Cl)cc43)nn2C2CCN(C3COC3)CC2)C1 [Example 331, 3-[7-chloro-6-(1-methylpyrazol-4-yl)-3,4-dihydro-2H-quinolin-1-yl]-N-methyl-1-[1-(oxetan-3-yl)-4-piperidyl]-6,7-dihydro-4H-pyrazolo[4,3-c]pyridine-5-carboxamide]",0.018
